In all, about 410,000 compounds went through this assay and about 260 (0.063%) were called active. Inconclusive results, whose numbers are uncertain, are shown with a selection of clear calls. Calls come from the whole dose curve; as a rule, active = well fitted activation curve with a large enough effect; inconclusive = small, poorly fitted or top-dose-only effect; inactive = no such curve, though single readings can be large or run the other way. Potencies of inconclusive entries are left out as doubtful fits.
Assay: qHTS for compounds that reverse cellular toxicity of Amyloid beta (A-beta) peptide in yeast: Primary Screen; note: nearly all actives have a fitted effect of over 55% in size
Settings: yeast expressing A-beta42, growth rescue, OD600, 48 h; growth rescue: at 46.1 µM (top of the series), 0% DMSO, 100% iron-clioquinol control
In short: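 Yeast growth medium received pinned compounds, then yeast cells expressing toxic A-beta were added; plates incubated at 30 C for 48 hr. Growth read as absorbance at 600 nm, normalized to DMSO and equimolar FeCl3 plus clioquinol controls.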
Potency is the fitted concentration of half-maximal effect; tags give direction and shape of the fitted curve.

SMILES | Potency | growth rescue
CC(C)Cn1c(-c2cccs2)nc2nc3ccccc3nc21 | inactive | –
CCN1CCN(C(c2cccs2)C(C)NS(=O)(=O)c2ccc(Br)cc2)CC1 (centres undefined) | inconclusive [activator, partial curve, poor fit] | –
CCC(=O)Nc1nc2ccccc2n1Cc1ccc(Cl)cc1 | inconclusive [activator, single point] | –
COc1ccc(NC(=S)N/N=C2\CC(C)(C)Oc3ccc(O)cc32)cc1 | inconclusive [activator, partial curve] | –
CCOC(=O)c1ccc(S(=O)(=O)N2CCC(C(=O)N3CCN(c4ccccc4OC)CC3)CC2)cc1 | inactive | –
Fc1ccccc1/C=N/n1cnnc1 | inactive | –
Cc1ccc(C(=O)CSc2nnc(CNc3ccc(C)cc3C)n2Cc2ccco2)cc1 | inconclusive [activator, partial curve, poor fit] | –
CCN1CCN(CNC(=O)c2cnccn2)CC1 | inconclusive [activator, full curve] | –
O=C(COC(=O)Cc1n[nH]c(=O)c2ccccc12)Nc1c(Br)cc([N+](=O)[O-])cc1Br | inactive | –
Cc1ccccc1NC(=S)NCCc1ccccc1 | inconclusive [activator, single point] | –
COc1ccc(-c2nc(N)c(C#N)c(-c3cccnc3)c2C)cc1 | inconclusive [activator, single point] | –
Cc1ccccc1Nc1nc(N)nc(CN(C)Cc2ccccc2Cl)n1 | inconclusive [activator, partial curve, poor fit] | –
CCOC(=O)C(=NCC1CCCO1)NNc1cc(Cl)ccc1Cl (centres undefined) | inconclusive [activator, partial curve, poor fit] | –
COc1ccc(-c2[nH]ncc2-c2ccc(Cl)cc2)c(O)c1 | inconclusive [activator, single point] | –
Cc1oc2c(CN3CCCC3)c(O)ccc2c(=O)c1Oc1ccccc1Br | inactive | –
COCCCNC(=O)c1ccc(OC)c(OC2CCN(C(C)C)CC2)c1 | inconclusive [activator, partial curve, poor fit] | –
COc1cnc(-c2ccccn2)nc1Oc1ccc(Cl)c2ccccc12 | inconclusive [activator, partial curve, poor fit] | –
CN(CCc1ccccc1)C(=O)c1cc(COc2cccc(C(F)(F)F)c2)on1 | inconclusive [activator, partial curve, poor fit] | –
CCOc1ccc(NCc2nc3ccccc3n2CCOc2ccc(C)cc2)cc1 | inconclusive [activator, single point] | –
CCc1nn2c(=O)c(S(=O)(=O)Nc3ccc(C(C)C)cc3)c(C)nc2s1 | inconclusive [activator, single point] | –
Cc1ccc2[nH]c(=O)c(CN(C(=O)c3cccc([N+](=O)[O-])c3)C(C)C)cc2c1 | inconclusive [activator, partial curve, poor fit] | –
CCC(C)Sc1ccc([C@H]2N[C@@](Cc3ccccc3)(C(=O)OC)[C@H]3C(=O)N(CC)C(=O)[C@@H]23)cc1 (some centres undefined) | inconclusive [activator, partial curve] | –
CC(C)(C)Cc1c(-c2ccc(Cl)cc2)nc2c(Cl)cc(C(F)(F)F)cn12 | inactive | –

SMILES | Potency | growth rescue
N#C/C(=C\c1cc(Br)ccc1F)C(=O)NC1CC1 | inconclusive [activator, full curve, poor fit] | –
COc1ccc(C(=O)NNC(=S)NC(=O)c2ccccc2)cc1 | inconclusive [activator, full curve, poor fit] | –
CC(C)(C)c1ccc(C(=O)N/N=C/c2ccccn2)cc1 | inconclusive [activator, single point] | –
COc1ccc(CCNC(=O)CSc2nc3ccccc3nc2Cc2ccc(Cl)cc2)cc1OC | inactive | –
O=C(CCSCc1cnn(-c2ccccc2)c1-n1cccc1)NCc1ccc(Cl)cc1 | inconclusive [activator, single point] | –
CCOc1ccc(Cc2c(Cl)nc(SC)nc2N(C)C)cc1 | inconclusive [activator, partial curve, poor fit] | –
O=C(COc1ccc(Cl)cc1Cl)NC(=O)NC1CCCC1 | inconclusive [activator, single point] | –
Cc1cccc(CSc2ccc3nnc(CCNS(=O)(=O)c4ccccc4)n3n2)c1 | inconclusive [activator, partial curve] | –
Cc1occc1C(=O)N/N=C/C1=C(N2CCOCC2)C(=C\c2ccc(Cl)cc2Cl)/CC1 | inactive | –
Cc1[nH]c2ccccc2c1/C=N/NC(=S)NCc1ccccc1 | inconclusive [activator, single point] | –
CCOC(=O)C1CCCN(C(=S)NC(=O)c2cc(Br)ccc2Cl)C1 (centres undefined) | inconclusive [activator, partial curve, poor fit] | –
CC1CCCCN1CCCNC(=O)c1cc(Br)c(Br)[nH]1 (centres undefined) | inconclusive [activator, single point] | –
CCc1ccc2c(c1)c(=O)c(C(=O)c1ccccc1)cn2CC(=O)Nc1ccc(C)c(Cl)c1 | inactive | –
c1ccc(-c2nc3ccccc3[nH]2)cc1 | inactive | –
COC(=O)C1=C(C)NC(C)=C([N+](=O)[O-])C1c1ccccc1C(F)(F)F (centres undefined) | inactive | –
O=C(NCc1cccs1)c1nn(-c2ccccc2F)nc1CO | inactive | –
COCCNC(=S)N/N=C(\C)c1cccc(C(F)(F)F)c1 | active: 11.2 µM | –
COc1ccc(CCNc2nc(SCc3ccc(F)cc3)nc3ccccc23)cc1OC | inactive | –
CC1(C)c2[nH]c3ccccc3c2C[C@H]2C(=O)N(Cc3ccc(F)cc3)C(=O)N21 | inconclusive [activator, partial curve, poor fit] | –
COc1cccc(-c2cc(C(=O)Nc3c(C)nn(Cc4ccccc4)c3C)no2)c1 | inconclusive [activator, full curve] | –
COc1ccccc1CNC(=O)c1ccc2c(c1)nnn2C1CCCC1 | inactive | –
CCOC(=O)C1=C(C)NC(=O)NC1c1ccc2c(c1)OCO2 (centres undefined) | inconclusive [activator, single point] | –
COc1ccc(NS(=O)(=O)c2ccc(NC(=S)NC(=O)CC(C)C)cc2)cc1 | inconclusive [activator, full curve, poor fit] | –

SMILES | Potency | growth rescue
O=C(CN1CCN(S(=O)(=O)N2CCCCC2)CC1)Nc1cc(Cl)cc(Cl)c1 | inconclusive [activator, single point] | –
Cc1nc(-n2nc(C)c(Cc3ccc(Cl)cc3)c2C)sc1C(=O)N1CCCCC1C (centres undefined) | inconclusive [activator, single point] | –
C=CCNC(=S)NNC(=O)c1ccc(OCC(C)C)cc1 | – | inconclusive: -7.43% [activator]
COc1ccccc1-c1noc(-c2ccccc2C(=O)Nc2cccnc2)n1 | inconclusive [activator, full curve] | –
Cc1ccccc1CC1(C)C(=O)Nc2ccc(S(=O)(=O)NC3CCCCC3)cc21 (centres undefined) | inactive | –
Cn1nc(C(=O)Nc2cc(Cl)ccc2N2CCCC2)c2ccccc2c1=O | inactive | –
COc1ccc(NC(=S)N2CCC(Cc3ccccc3)CC2)cc1OC | inconclusive [activator, single point] | –
O=C(NCCCn1ccnc1)Nc1ccc2c(c1)OCO2 | – | inconclusive: -2.29% [activator]
CCNC(=O)c1c(NC(=O)Cc2coc3cc(C)ccc23)sc2c1CCCC2 | inactive | –
COc1ccc(S(=O)(=O)N2CCOCC2)cc1NC(=O)[C@@H]1CCCN1C(=O)c1cccs1 | inconclusive [activator, full curve] | –
CCOC(=O)c1c(C)[nH]c(C(=O)CN(C)CC(=O)Nc2ccccc2Cl)c1C | inconclusive [activator, partial curve] | –
Cc1nnc(NC(=O)c2ccc3ccccc3c2)o1 | active: 15.8 µM | –
Cn1ccc2c(-c3ccc(C(C)(C)C)cc3)cc3c(c21)C1CCC3O1 (centres undefined) | inactive | –
O=C(Nc1ccccc1)c1c(F)cccc1F | inactive | –
CCOc1ccc2c(c1)N(C(=O)CN1C(=O)CCC1=O)C(C)(C)C=C2C | inconclusive [activator, full curve, poor fit] | –
COc1ccc(N2CCN(C(=O)NCc3cccc(OC)c3)CC2)cc1 | inconclusive [activator, single point] | –
Cc1cc2c(c(=O)n1C)C(Cc1ccccc1)C(C#N)=C(N)O2 (centres undefined) | inactive | –
CN(c1ccccc1)S(=O)(=O)c1ccc(C(=O)Nc2nnc(-c3ccc(F)cc3)o2)cc1 | inconclusive [activator, partial curve, poor fit] | –
CCOC(=O)Cn1nc(-c2ccccc2)c2cnc3ccc(OCC)cc3c21 | inactive | –
Cc1ccc(NC(=S)Nc2cccc3ccccc23)cc1 | inconclusive [activator, full curve, poor fit] | –
CC(=O)Oc1cc2c(cc1Cl)C1(CC(c3ccccc3Cl)O2)CC(C)(C)NC(=S)N1 (centres undefined) | inconclusive [activator, partial curve, poor fit] | –
CC(=O)Nc1ccc(NC(=O)COC(=O)/C(=C/c2ccccc2)n2nnnc2C)cc1 | inconclusive [activator, single point] | –
CCOc1ccc(/C=C/c2nc(C#N)c(N3CCCCC3)o2)cc1 | inconclusive [activator, partial curve, poor fit] | –
